Reference: PubChem BioAssay AID1508623 (National Center for Advancing Translational Sciences (NCATS), 2021)
About 450 (0.94%) of roughly 48,000 compounds were called active. Inconclusive means that the source gave no clear call. Such entries were picked first, then a sample of the others. Calls follow the shape of the dose curve; as a rule, active = well fitted inhibition curve with a large enough effect; inconclusive = small, poorly fitted or top-dose-only effect; inactive = no such curve, though single readings can be large or run the other way. Potencies of inconclusive entries are doubtful fits and often do not repeat.

assay: Primary qHTS for Identification of Small Molecule Inhibitors of Huntingtin Promoter Activity; conditions: HEK293 HTT promoter firefly luciferase reporter (activity 0% = vehicle and -100% = no light), 24 h; series mostly up to 57.5 µM; also: nearly all actives have a fitted effect of over 50% in size
Outline: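 Quantitative HTS used concentration series of up to 57.5 uM final on HEK293 luciferase reporter cells, 24 h at 37 degrees C. Readout was Dual-Glo firefly luminescence.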
Potency is read from the fitted curve at half-maximal effect; tags tell the direction and shape of the fitted curve.

Potency, active:
Cc1ccc(-c2c(C)n3c4c(=O)n(C)c(=O)n(C)c4nc3n2CCCO)cc1 10 µM
O=C(Nc1cccc(C(F)(F)F)c1)c1ccc(F)c(S(=O)(=O)N2CCc3ccccc3C2)c1 28.2 µM
Cc1cccc(-n2c(-c3ccco3)nc3c(cnn3-c3ccc(F)cc3)c2=O)c1 17.8 µM
CCCCOc1ccc(C(=O)NCCc2csc(-c3ccc(OC)cc3)n2)cc1 22.4 µM

Potency, inactive:
CC1C(=O)N2CCCc3cc(S(=O)(=O)Nc4ccc(Br)cc4F)cc1c32 (stereo unspecified)
CC(=O)N1c2c(cc(Br)cc2S(=O)(=O)Nc2ccccc2C)CC1C (stereo unspecified)
COc1ccc2c(c1)c1c(c(=O)n(-c3ccc(C)cc3)c(=O)n1CC(=O)Nc1cc(C)ccc1C)n2C
COc1ccccc1NC(=O)Cn1c(=O)n(Cc2nc(-c3ccccc3)no2)c(=O)c2ccccc21
COc1ccc(NC(=O)C2CCN(S(=O)(=O)c3c(C)noc3/C=C/c3ccc(C)cc3)CC2)cc1Cl
CCOc1ccc(S(=O)(=O)NCC(c2cccs2)S(=O)(=O)c2ccc(C)cc2)cc1 (stereo unspecified)
CCN(CC)C(=O)C1=CC(c2ccc3c(c2)OCO3)=NS(=O)(=O)N1C
CCCCOc1ccc(CN2C(=O)C(=O)c3cc(C)ccc32)cc1OC
COc1ccc(Cl)cc1NC(=O)COc1cccc2c(=O)n(C)ccc12
CC(C)(C)OC(=O)CN(Cc1ccc(Cl)cc1)Cc1ccc([N+](=O)[O-])s1
Cc1ccc2nc(N)[nH]c(=O)c2c1Sc1ccncc1
CCOC(=O)c1cc(S(=O)(=O)N(C)c2ccccc2)[nH]n1
CCCOc1ccc(C(=O)Nc2ccc(NC(=O)c3ccc(Br)cc3)cc2)cc1
COc1ccc2nc(NC(=O)c3nc(S(=O)(=O)Cc4ccc(C)cc4)ncc3Cl)sc2c1

Potency, inconclusive:
O=C(C1CCC1)N1CCCc2cc(S(=O)(=O)N3CCN(c4ccccc4)CC3)ccc21 31.6 µM [inhibitor, partial curve, poor fit]
CCOC(=O)c1c(C)[nH]c(CCC(=O)Nc2c(C)cccc2CC)c1C 39.8 µM [inhibitor, single point]
CCOC(=O)N1CCc2c(sc(NCc3cccc(F)c3)c2C(=O)Nc2ccc(OC)cc2OC)C1 10 µM [inhibitor, partial curve, poor fit]
Cc1ccc(S(=O)(=O)N2CCCc3cc(NS(=O)(=O)c4cc(F)ccc4F)ccc32)cc1 31.6 µM [inhibitor, single point]
O=C(CCCn1c(=O)c2ccccc2n(Cc2cccc(Cl)c2)c1=O)NCCc1ccc(Cl)cc1 25.1 µM [inhibitor, single point]
COC(=O)c1c(NC(=O)COc2ccc(OC)cc2)sc2c1CCC(C)C2 (stereo unspecified) 28.2 µM [inhibitor, partial curve, poor fit]
CC(C)Oc1ccc(CNC(=O)C2CCCN(S(=O)(=O)c3ccc4c(ccn4C)c3)C2)cc1 (stereo unspecified) 11.2 µM [inhibitor, partial curve, poor fit]
CCn1cc(S(=O)(=O)c2ccc(C)cc2C)c(=O)c2cc(F)c(N3CCCC3)cc21 39.8 µM [inhibitor, single point]
O=C(CC1C(=O)N(c2ccccc2)C(=O)N1CCc1cccs1)Nc1ccc(Cl)cc1 (stereo unspecified) 39.8 µM [inhibitor, partial curve, poor fit]
O=C(Cn1c(=O)oc2cc(S(=O)(=O)NCc3ccccc3)ccc21)N(CCO)Cc1ccccc1 22.4 µM [inhibitor, single point]
CCC1CN(C(=O)Nc2cc(OC)cc(OC)c2)c2ccccc2S1 (stereo unspecified) 39.8 µM [inhibitor, single point]
COc1ccccc1CNC(=O)c1cc2cc(S(=O)(=O)N3CCCCC3)ccc2n1C 25.1 µM [inhibitor, single point]
COc1ccc(-c2cc(C(F)(F)F)nc(SCC(=O)Nc3ccc(C(C)=O)cc3)n2)cc1 17.8 µM [inhibitor, partial curve, poor fit]
CCC1=C(c2ccc(C)cc2)S(=O)(=O)N=C1N1CCC(C(=O)N2CCCCC2)CC1 17.8 µM [inhibitor, single point]
Cc1ccc(-n2cnc3cc(C(=O)NC4CCCCCC4)ccc32)cc1Cl 28.2 µM [inhibitor, partial curve, poor fit]
COc1ccc(-c2nn(C)c3sc(C(=O)N4CCN(c5cccc(Cl)c5)CC4)cc23)cc1OC 28.2 µM [inhibitor, single point]
Cc1ccc(NS(=O)(=O)c2ccc3[nH]c4c(c3c2)CCCCC4)cc1 15.8 µM [inhibitor, partial curve, poor fit]
CC(=O)N1CCc2cc(S(=O)(=O)N3CCN(c4ccc(C)cc4)C(C)C3)ccc21 (stereo unspecified) 17.8 µM [inhibitor, partial curve, poor fit]
Cc1ccc(C)c(N(C)S(=O)(=O)c2ccc3[nH]cc(C(=O)NC4CCCC4)c(=O)c3c2)c1 22.4 µM [inhibitor, single point]
Cc1c(C(=O)OCCOc2ccccc2)[nH]c2c1C(=O)CC(c1ccccc1Cl)C2 (stereo unspecified) 10 µM [inhibitor, partial curve, poor fit]
CCC(C(=O)NCCc1cc(OC)ccc1OC)n1nc(C)c2sc3ccccc3c2c1=O (stereo unspecified) 28.2 µM [inhibitor, single point]
COc1ccccc1CNC(=O)c1ccc2c(c1)N(Cc1ccc(C)cc1)CCS2 20 µM [inhibitor, partial curve, poor fit]
Cc1ccc(-n2ncc3c(N4CCCCCC4)ncnc32)cc1C 0.0891 µM [inhibitor, full curve, poor fit]
O=S(=O)(NCCc1nnc2ccc(SCc3c(F)cccc3Cl)nn12)c1ccccc1 35.5 µM [inhibitor, single point]
CC(C)CCNC(=O)c1cc(Sc2ccc(F)cc2F)nc2ccccc12 17.8 µM [inhibitor, partial curve]
O=C(CN1CCN(CC(=O)Nc2ccccc2F)CC1)Nc1ccc(Cl)c(C(F)(F)F)c1 25.1 µM [inhibitor, single point]
O=C(NCCc1ccccc1)c1ccc(CSc2nc3ccncc3n2Cc2cccc(F)c2)cc1 39.8 µM [inhibitor, single point]
CCN(CC)C(=O)c1sc2c(c1C)c(=O)n(CCc1ccccc1)c(=O)n2Cc1cccc(Cl)c1 39.8 µM [inhibitor, partial curve, poor fit]
CCc1ccc(-c2cc(C)no2)cc1S(=O)(=O)NCc1ccc(OC)cc1 11.2 µM [inhibitor, partial curve, poor fit]
COC(=O)c1ccc(NC(=O)CN(C)S(=O)(=O)c2ccc3c(c2)CCCC(=O)N3)cc1 22.4 µM [inhibitor, partial curve, poor fit]
CCCCCN=C(N)N/N=C/c1c[nH]c2ccc(OC)cc12 31.6 µM [inhibitor, single point]
Cc1cccc(C=NNc2cc(N3CCOCC3)nc(OCCc3ccccn3)n2)c1 8.63 µM [inhibitor, partial curve]
Cc1ccc(NS(=O)(=O)c2ccc3[nH]c4c(c3c2)CCCCCC4)cc1C 31.6 µM [inhibitor, single point]
CCOc1ccc(S(=O)(=O)Nc2ccc3c(c2)CCCN3S(=O)(=O)c2ccc(C)cc2)cc1 25.1 µM [inhibitor, partial curve]
Cn1c(C(=O)NCc2ccccc2F)cc2cc(S(=O)(=O)N3CCCCC3)ccc21 22.4 µM [inhibitor, single point]
COc1ccc(NC(=O)CN(C)S(=O)(=O)c2ccc3nc(C)sc3c2)cc1Cl 31.6 µM [inhibitor, single point]
Cc1cccc(Nc2nnc(-c3ccc(C)c(S(=O)(=O)N4CCOCC4)c3)c3ccccc23)c1 10 µM [inhibitor, partial curve, poor fit]
O=C(CN1C(=O)c2ccccc2Sc2ncccc21)Nc1cccc(C(F)(F)F)c1 31.6 µM [inhibitor, single point]
COc1ccc(Nc2cc(C)c3cc(NC(=O)COc4cccc(C)c4)ccc3n2)cc1 39.8 µM [inhibitor, single point]
Cc1cccc(N2CCN(C(=O)CCNS(=O)(=O)c3ccc4c(c3)CCN4C(=O)C3CC3)CC2)c1C 35.5 µM [inhibitor, partial curve, poor fit]
CCOc1ccccc1NC(=O)CN(c1cc(C)cc(C)c1)S(=O)(=O)c1c(C)nn(C)c1C 28.2 µM [inhibitor, single point]
Cc1cc(C)c(Cn2cnc3nc4c(cc3c2=O)CCCC4)c(C)c1 15.8 µM [inhibitor, partial curve, poor fit]
CO[C@H]1O[C@@H]2O[C@@]3(C)CC[C@@H]4[C@@H](C)CC[C@@H]([C@H]1C)[C@@]24OO3 8.63 µM [inhibitor, partial curve, poor fit]
